{
  "source": "paper PMC6919601",
  "about": "“Identification of Plasmodium dipeptidyl aminopeptidase allosteric inhibitors by high throughput screening” (PLoS ONE, 2019)",
  "note": "The whole screen tested about 110,000 compounds, of which about 230 (0.21%) showed an effect of 50% or more. Some of the results follow.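 Also: 30 min substrate incubation versus DMSO and 10 µM JCP410 controls.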",
  "data": [
    {"molecular_target": "DPAP1 (Plasmodium falciparum, UniProt Q8IIJ9)", "sequence (Q8IIJ9 whole entry, looked up)": "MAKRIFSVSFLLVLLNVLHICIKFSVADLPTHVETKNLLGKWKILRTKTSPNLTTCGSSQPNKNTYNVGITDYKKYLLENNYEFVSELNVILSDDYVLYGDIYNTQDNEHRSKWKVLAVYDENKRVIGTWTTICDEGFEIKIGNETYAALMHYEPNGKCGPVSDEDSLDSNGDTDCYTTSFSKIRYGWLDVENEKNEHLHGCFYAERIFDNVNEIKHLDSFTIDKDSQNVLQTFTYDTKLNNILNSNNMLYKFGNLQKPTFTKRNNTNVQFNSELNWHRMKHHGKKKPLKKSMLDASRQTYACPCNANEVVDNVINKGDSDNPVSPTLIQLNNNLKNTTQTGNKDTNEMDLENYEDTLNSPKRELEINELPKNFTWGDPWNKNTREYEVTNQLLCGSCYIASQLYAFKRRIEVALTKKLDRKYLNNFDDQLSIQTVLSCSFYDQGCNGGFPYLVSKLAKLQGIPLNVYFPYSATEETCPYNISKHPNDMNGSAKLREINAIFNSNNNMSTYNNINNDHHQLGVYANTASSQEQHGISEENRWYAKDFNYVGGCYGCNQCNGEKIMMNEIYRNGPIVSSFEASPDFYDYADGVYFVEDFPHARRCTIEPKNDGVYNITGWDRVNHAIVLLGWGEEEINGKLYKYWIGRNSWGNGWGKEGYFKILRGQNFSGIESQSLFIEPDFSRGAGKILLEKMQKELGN", "experiment": "primary screen, percent inhibition; read by cleavage of a fluorogenic dipeptide substrate; higher = more effect of the substance", "design": "species or system P. falciparum D10 trophozoite lysates; single well", "units": {"% Inhibition @ 10 uM": "%"}, "values": [
      {"smiles": "COc1ccccc1CNC(=O)COc1ccc2c(c1)C(=O)CC1(CCN(C(C)=O)CC1)O2", "% Inhibition @ 10 uM": -1.28},
      {"smiles": "COc1ccccc1CNC(=O)c1oc2ccc3c(c2c1C)C(=O)CC1(CCCC1)O3", "% Inhibition @ 10 uM": 5.42},
      {"smiles": "CCCNC(=O)c1oc2ccc3c(c2c1C)C(=O)CC(C)(CC)O3", "note": "(stereo not shown)", "% Inhibition @ 10 uM": -2.17},
      {"smiles": "COc1ccc(C)cc1NC(=O)CN(c1ccc(Cl)c(Cl)c1)S(C)(=O)=O", "% Inhibition @ 10 uM": 6.15},
      {"smiles": "COc1cccc(/C=C2\\N=C(c3ccc(OC)cc3Cl)OC2=O)c1", "% Inhibition @ 10 uM": -3.08},
      {"smiles": "Cc1nc(O)nc(O)c1S(=O)(=O)N1CCC(C(=O)NC(C)CCc2ccccc2)CC1", "note": "(stereo not shown)", "% Inhibition @ 10 uM": -5.88},
      {"smiles": "CCN1OCN(c2nc(N(C)C)nc(N(C)C)n2)C1=N", "% Inhibition @ 10 uM": -2.49},
      {"smiles": "Cc1ccc2c(c1)c1c(n2C)C(NC(N)=O)CCC1", "note": "(stereo not shown)", "% Inhibition @ 10 uM": -2.99},
      {"smiles": "COCCCNc1nc2c(c(=O)[nH]c(=O)n2C)n1CC(O)COc1ccc(OC)cc1", "note": "(stereo not shown)", "% Inhibition @ 10 uM": 0.275},
      {"smiles": "CCSc1nc2c(c(=O)n(Cc3ccccc3Cl)c(=O)n2C)n1C", "% Inhibition @ 10 uM": -3.28},
      {"smiles": "CCOc1ccc(NC(=O)c2nn(C)cc2Br)cc1", "% Inhibition @ 10 uM": -3.45},
      {"smiles": "CN1CCCN(Cc2ccc(Cl)c(Cl)c2)CC1", "% Inhibition @ 10 uM": -3.95},
      {"smiles": "COc1ccc(-c2nc(Cn3c(=O)cc(-c4ccccc4)c4c(C)nn(C)c43)c(C)o2)cc1", "% Inhibition @ 10 uM": 7.28},
      {"smiles": "Cc1c(Cc2ccccc2)sc(NC(=O)Nc2ccccc2)c1C(N)=O", "% Inhibition @ 10 uM": -0.055},
      {"smiles": "CC(C)CCNC(=O)c1ccc2c(SCC(=O)O)c3c(nc2c1)CCCC3", "% Inhibition @ 10 uM": 3.33},
      {"smiles": "Cc1ccc(CNC(=O)c2cn(C3CCCCC3)c(=O)c3c2c2ccccc2n3C)o1", "% Inhibition @ 10 uM": 0.163},
      {"smiles": "CCN(CC)c1ccc(-c2nocc2C#N)cc1", "% Inhibition @ 10 uM": 5.92},
      {"smiles": "O=C(NCCCSC1CCCCC1)c1ccc(CS(=O)c2ccccc2)o1", "note": "(stereo not shown)", "% Inhibition @ 10 uM": -6.89},
      {"smiles": "CC(C)C(=O)Nc1nnc(S(=O)(=O)N(C)Cc2ccccc2)s1", "% Inhibition @ 10 uM": 4.73},
      {"smiles": "CC1(C(=O)O)NCCc2c1[nH]c1ccccc21", "note": "(stereo not shown)", "% Inhibition @ 10 uM": -3.41},
      {"smiles": "Cc1ccc(/C(O)=C/c2nc3ccccc3nc2O)c(C)c1", "% Inhibition @ 10 uM": 2.51},
      {"smiles": "O=C(O)c1ccc(CN2CCN(c3cccc(C(F)(F)F)c3)CC2)cc1", "% Inhibition @ 10 uM": -1.07},
      {"smiles": "CCc1nnc(NC(=O)C(=O)c2cc(C)n(CCOC)c2C)s1", "% Inhibition @ 10 uM": 3.92},
      {"smiles": "CC12CC(NC(=S)N1)c1cc(F)ccc1O2", "note": "(stereo not shown)", "% Inhibition @ 10 uM": 0.351},
      {"smiles": "COc1ccc2cc3cc(C(=O)N4CCN(Cc5ccccc5)CC4)sc3nc2c1", "% Inhibition @ 10 uM": 4.61},
      {"smiles": "Cc1c(CCC(=O)NCc2ccccc2Cl)c(=O)oc2cc(O)ccc12", "% Inhibition @ 10 uM": 0.895},
      {"smiles": "CCOc1ccc(N(CC(=O)NC2CC2)S(=O)(=O)c2ccc(Cl)cc2)cc1", "% Inhibition @ 10 uM": -5.13},
      {"smiles": "Cc1ccc2n(n1)c(O)c(Cc1ccccc1)c(=O)[n+]2-c1ccccc1", "% Inhibition @ 10 uM": 0.956},
      {"smiles": "Cn1ccc(-c2cc(-c3ccccc3)nc(-c3ccccc3)c2)c1", "% Inhibition @ 10 uM": -5.68},
      {"smiles": "O=C(O)c1ccc(CN2C(=O)c3cccnc3C2=O)cc1", "% Inhibition @ 10 uM": 2.84},
      {"smiles": "CCOCCCNC(=O)C1CCCCN1S(=O)(=O)c1ccc(C(C)(C)C)cc1", "note": "(stereo not shown)", "% Inhibition @ 10 uM": -6.5},
      {"smiles": "CCCN1CCC(NCC(C)c2ccccc2)CC1", "note": "(stereo not shown)", "% Inhibition @ 10 uM": -2.02},
      {"smiles": "C/C(Cl)=C/Cc1c(C)nc2ccc(C)cc2c1O", "% Inhibition @ 10 uM": 1},
      {"smiles": "CN(C)/C=C/c1c([N+](=O)[O-])c2ccc(O)cc2n1-c1ccccc1", "% Inhibition @ 10 uM": -6.83},
      {"smiles": "CCOc1ccccc1-n1c(SCC(=O)NCc2ccco2)nc2nnc(C)c-2c1N", "% Inhibition @ 10 uM": -3.93},
      {"smiles": "CCN(CC)CCN(C)C/C=C/c1ccc(N(C)C)cc1", "% Inhibition @ 10 uM": -2.95},
      {"smiles": "CCN(CCN(C)C)C(=O)Cn1nc(Cc2ccncc2)c2ccccc2c1=O", "% Inhibition @ 10 uM": 5.09},
      {"smiles": "CCOC(=O)C1=CN(Cc2ccc(Cl)cc2)C=C(C(=O)OCC)C1c1cccc(OC)c1OC", "% Inhibition @ 10 uM": -1.48},
      {"smiles": "CCC(=O)Nc1ccc2c(c1)oc1ccccc12", "% Inhibition @ 10 uM": -2.94},
      {"smiles": "COc1ccc(Br)cc1CN1CCN(Cc2ccncc2)CC1", "% Inhibition @ 10 uM": 0.611},
      {"smiles": "Cc1cccc(NC(=O)C23CC4CC(C2)CC(n2cnc(Br)n2)(C4)C3)c1C", "% Inhibition @ 10 uM": 3.56},
      {"smiles": "COc1ccc(NC(=O)C2=C(C)NC(=O)NC2c2ccccc2Br)cc1", "note": "(stereo not shown)", "% Inhibition @ 10 uM": -5.9},
      {"smiles": "O=S(=O)(CCc1nc2ccccc2s1)c1ccc(Cl)cc1", "% Inhibition @ 10 uM": 1.64},
      {"smiles": "CN(Cc1ccccc1)C(=O)CN1C(=O)c2ccccc2S1(=O)=O", "% Inhibition @ 10 uM": -1.65},
      {"smiles": "COc1ncc(-c2ccc(C(=O)N[C@@H](CC(C)C)C(=O)NCC#N)cc2)c(OC)n1", "% Inhibition @ 10 uM": 3.19},
      {"smiles": "CCOC(=O)C1=C(C)N=c2s/c(=C\\c3cn(C)c4ccccc34)c(=O)n2C1c1ccccc1", "note": "(stereo not shown)", "% Inhibition @ 10 uM": 1.39},
      {"smiles": "CCc1cccc(NC(=O)C2CCCCC2C(=O)O)c1", "note": "(stereo not shown)", "% Inhibition @ 10 uM": 5.14},
      {"smiles": "COc1ccc2c3ncn(CCCN4CCN(C5CCCCC5)CC4)c(O)c-3nc2c1", "% Inhibition @ 10 uM": 4.8},
      {"smiles": "N#CC1=C(N)SC(N)=C(C#N)C1c1ccc(Cl)cc1Cl", "% Inhibition @ 10 uM": 5.08}
    ]}
  ]
}
